# Source: US20230220085A1 (BRIGHAM AND WOMEN S HOSPITAL, published 2023)
# T1: Recombinant human BMPR2-Fc (BMPR2 extracellular domain-IgG Fc fusion protein) (human, UniProt Q13873 27-150)
# T1 construct: extracellular domain; also called immobilized BMPR2; BMPRII; not shown: IgG Fc of the fusion protein (captured on anti-human IgG Fc sensors)
# T1 sequence (looked up): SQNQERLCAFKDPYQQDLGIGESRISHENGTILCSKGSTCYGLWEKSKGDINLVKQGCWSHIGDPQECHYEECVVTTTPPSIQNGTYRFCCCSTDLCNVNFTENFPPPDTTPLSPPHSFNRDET
# B1: scFv clone ALK1.8 (anti-ACVRL1/ALK1) (scFv)
# scFv: [about 100 residues not written out]EGKSSGSGSESKASQVQLQESGPGLVKPSQTLSLTCTVSGGSISSDDYYWSWIRQTPGKGLEWIGYIYYSGITYYNPSLKSRVTISVDTSKNQFSLKLSSVTAADTAVYYCAREGCNDGVCYNGVFDYWGQGTLVTVSS
# notes: Human scFv from phage display, VL-linker-VH, expressed in E. coli; also called ACVRL1.8
# B2: Biotinylated scFv ALK1.8 (scFv)
# scFv: [about 100 residues not written out]EGKSSGSGSESKASQVQLQESGPGLVKPSQTLSLTCTVSGGSISSDDYYWSWIRQTPGKGLEWIGYIYYSGITYYNPSLKSRVTISVDTSKNQFSLKLSSVTAADTAVYYCAREGCNDGVCYNGVFDYWGQGTLVTVSS
# modifications: biotinylated (DSB-X Biotin Protein Labeling Kit; average 1.5-2 sites per molecule; sites not stated)
# notes: ALK1.8 scFv after low substitution ratio biotinylation; also called ALK1.8-Bio
# Key:
# [1] = biological target: T2, Recombinant human ALK1-Fc (ALK1 extracellular domain-IgG Fc fusion protein) (human, UniProt P37023 in part); test: BLI (Octet Red), FIG. 2A
# T2 construct: extracellular domain; Bought reagent (R&D #370AL is named for the luciferase assay); also called immobilized ALK1; ACVRL1; not shown: IgG Fc of the bought fusion protein (captured on anti-human IgG Fc sensors)
# Protocol: (§1) To characterize the biochemical interactions of the scFv clones with recombinant human ALK1 and BMPR2 receptors, we used Bio-Layer Interferometry (Octet Red 384, ForteBio). Receptors, expressed as IgG Fc fusion proteins (i.e., ALK1-Fc, and BMPR2-Fc) were immobilized onto Anti-Human IgG Fc Capture Sensors (ForteBio, #18-0015) at a concentration of 10 µg/mL in an equilibration buffer of HEPES 20 mM (GIBCO #15630), 0.05% Tween-20 (Promega #H5151), and Imidazole 25 mM (SIGMA #10250) in PBS. All the clones were tested at different ranges of concentration in equilibration buffer: 50 nM, 100 nM, 200 nM, and 400 nM. The ForteBio program methodology was set as follows: Baseline equilibration of 60 s, loading time of 60 s, washing time of 120 s, association time of 300 s, and dissociation time of 600 s. The binding kinetics were analyzed using the ForteBio data analysis software.
# (§2) Bio-Layer Interferometry was used to determine the affinities of scFv clones for human BMPR2 and ALK1 receptors. The binding kinetics of scFv clones ALK1.3 (FIG. 1A) and ALK1.8 (FIG. 1B) versus immobilized ALK1; and BMPR2.12 (FIG. 1C) and BMPR2.23 (FIG. 1D) against BMPR2 are shown.
# [2] = biological target: T1, Recombinant human BMPR2-Fc (BMPR2 …); test: BLI (Octet Red), immobilized BMPR2, FIG. 2B
# Protocol: as §1, §2
# [3] = biological target: T2, Recombinant human ALK1-Fc (ALK1 …); test: BLI, FIG. 4D
# Protocol: as §1
# T2 sequence (P37023 22-118): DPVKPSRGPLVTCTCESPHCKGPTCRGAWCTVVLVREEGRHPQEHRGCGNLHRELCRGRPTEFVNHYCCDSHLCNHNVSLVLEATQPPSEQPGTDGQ
Binder,binding result [1],binding result [2],binding result [3]
B1,binds,no binding,–
B2,–,–,binds
